# Reference: the supplement of paper PMC9433436
# ± gives the standard deviation of the averaged measurements. Whole data set: some 4,100 sequences, median “relative kcat/Km (krel) vs genomic leader AAAGAU” near 1.7, cut for the highest 2% near 6.5. Only a part is listed here, and it is no random draw.
# Biological target: T1, E. coli RNase P holoenzyme (M1 P RNA + rnpA protein) (UniProt P0A7Y8)
# T1 sequence: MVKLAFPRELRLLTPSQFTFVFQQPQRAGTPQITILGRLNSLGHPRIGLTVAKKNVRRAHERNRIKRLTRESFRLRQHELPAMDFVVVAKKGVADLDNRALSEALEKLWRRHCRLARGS
# Assay: relative kcat/Km (krel) vs genomic leader AAAGAU (relative (reference leader = 1)); higher = faster RNase P cleavage
# In short: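 Relative kcat/Km (krel) values came from internal competition kinetics on sequencing read ratios, normalised to the genomic leader and averaged over two technical replicates. A precursor tRNA-Met pool with randomized leader positions −6 to −1 was cleaved by E. coli RNase P holoenzyme (P RNA plus C5 protein) under multiple-turnover conditions at 37 °C. The buffer held 50 mM Tris-HCl pH 8, 100 mM NaCl and 17.5 mM MgCl2, and unreacted precursor was gel-purified at ~5–30% conversion, made into cDNA libraries and Illumina-sequenced.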
# [1] = fraction of substrate reacted: ~9-10% (9.79% repeat 1, 9.1% repeat 2)
# [2] = fraction of substrate reacted: ~13-16% (15.68% repeat 1, 13.17% repeat 2)
# [3] = fraction of substrate reacted: ~26-29% (28.66% repeat 1, 26.4% repeat 2)
Sequence,relative kcat/Km [1],relative kcat/Km [2],relative kcat/Km [3]
TCTCAA,2.39 ± 1.3,2.88 ± 0.5,4.05 ± 1.5
AGGCCT,0.882 ± 0.08,1.09 ± 0.059,1.22 ± 0.51
ATGAAC,1.53 ± 0.79,2.27 ± 0.36,3.69 ± 1.4
AGAGTC,0.78 ± 0.57,–,0.64 ± 0.34
TCCATT,4.11 ± 1.2,4.85 ± 1.2,7.33 ± 3.2
CTCCCG,–,1.39 ± 0.38,2.19 ± 0.18
TCTGAG,–,–,1.3 ± 0.34
GCGTCA,1.22 ± 0.66,1.3 ± 0.41,1.41 ± 0.12
CTGATA,0.887 ± 0.39,0.874 ± 0.049,1.16 ± 0.54
GCTTGG,0.631 ± 0.29,–,0.657 ± 0.29
GTCGTG,–,0.243 ± 0.15,1.26 ± 0.04
ACGAGA,1.59 ± 0.47,2.26 ± 0.7,2.67 ± 1.2
AGGCAC,1.88 ± 0.072,0.663 ± 0.19,1.55 ± 0.34
TGAATG,0.537 ± 0.44,0.418 ± 0.011,1.65 ± 0.14
AATAGC,1.95 ± 0.28,2.22 ± 0.098,3.09 ± 1.1
AGACAC,3.91 ± 1.7,3.32 ± 0.35,5.36 ± 2.2
TTTCTT,2.88 ± 0.89,3.19 ± 0.66,4.13 ± 2
GACCTA,2.84 ± 0.65,2.44 ± 0.3,4.1 ± 1.9
GCTTTG,–,–,1.02 ± 0.31
GCATTT,1.21 ± 0.41,1.62 ± 0.22,2.86 ± 1.4
GCAATT,–,0.851 ± 0.064,1.21 ± 0.26
CCCCCA,2.81 ± 1.5,1.96 ± 1.4,2.81 ± 0.61
TGCGGC,1.13 ± 0.11,0.994 ± 0.7,1.3 ± 1.3
CTGATT,1.39 ± 1.1,0.779 ± 0.094,1.64 ± 0.079
AGAAGC,2.58 ± 0.84,2.32 ± 0.46,2.38 ± 0.49
AATATG,–,–,1.5 ± 0.39
GCGTAT,1.96 ± 0.3,2.88 ± 0.95,3.37 ± 1.6

Sequence,relative kcat/Km [1],relative kcat/Km [2],relative kcat/Km [3]
CGTCGC,2.49 ± 0.74,3.77 ± 0.95,4.81 ± 1.1
ACAAGC,2.64 ± 1,1.72 ± 0.14,2.4 ± 0.85
TAATGA,3.46 ± 0.8,3.74 ± 0.99,5.9 ± 2.9
GGCCGT,–,–,1.79 ± 1.4
AATGCA,–,0.565 ± 0.21,0.83 ± 0.33
TAATTT,2.75 ± 0.56,3.44 ± 0.72,4.51 ± 2.3
GATTCA,1.24 ± 0.39,1.75 ± 0.35,2.73 ± 1
TCACGA,1.94 ± 0.45,2.34 ± 0.65,3.59 ± 1.2
TTGGAT,0.034 ± 0.0085,–,–
TTTAGG,–,0.392 ± 0.28,1.54 ± 0.42
GCGGTC,–,–,0.95 ± 0.64
CACCCA,1.51 ± 0.24,1.47 ± 0.73,2.44 ± 1
ACCTAG,2.77 ± 2.8,2.93 ± 0.56,4.27 ± 0.99
ATTACT,2.16 ± 1.3,2.22 ± 0.19,3.03 ± 0.91
AACATT,2.96 ± 1.9,3.2 ± 0.1,4.74 ± 1.8
CGCCCG,0.881 ± 0.6,0.514 ± 0.2,1.58 ± 0.21
CTATGC,2.9 ± 0.096,3.48 ± 0.63,5.18 ± 2.4
ATCGCT,2.5 ± 0.7,2.34 ± 0.31,3.27 ± 0.6
ATTCAA,2.88 ± 2.4,3.06 ± 0.28,3.93 ± 1.2
TCATTG,–,0.158 ± 0.11,1.45 ± 0.15
AAGAAG,–,–,1.01 ± 0.43
GCGCGC,1.18 ± 0.45,0.806 ± 0.69,1.61 ± 0.44
TGGTGA,–,0.491 ± 0.45,0.727 ± 0.34
AGGGGG,–,–,1.11 ± 1
TCGTAT,4.13 ± 0.92,4.78 ± 0.97,–
AACCTC,3.13 ± 1.3,2.12 ± 0.18,2.98 ± 0.97
